Source: PMC3983190, “Chemical Derivatives of a Small Molecule Deubiquitinase Inhibitor Have Antiviral Activity against Several RNA Viruses” (PLoS ONE, 2014)

Legend:
active cellular DUBs = experiment: Deubiquitinase activity assay (HA-UbVS labeling) in RAW 264.7 cells; details: 5 µM, 4 h, compared to untreated cells

Row | Structure (SMILES) | concentrations showing marked toxicity (RAW 264.7 cells) | active DUBs by HA-UbVS labeling (anti-HA immunoblot) (active cellular DUBs)
1 | CCC[C@H](NC(=O)/C(C#N)=C/c1cccc(Br)n1)c1ccccc1 [WP1130, reference compound] | above 6 µM | diminished expression of active DUBs
2 | CCCC(NC(=O)/C(C#N)=C/c1cccc(F)n1)c1ccc(OCCN2CCOCC2)cc1 (stereo not drawn) [Compound 7] |  | diminished expression of active DUBs
